According to article PMC4336329 (PLoS ONE, 2015):
Out of some 310,000 compounds screened, about 14,000 (4.5%) showed an effect of 50% or more. The effect is printed as a negative number. The list shows a part of the results.

Biological target: human ether-à-go-go-related gene (hERG) potassium channel (human, UniProt Q12809)
Test: primary screen, population patch clamp on CHO cells stably expressing hERG
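Note: peak tail current of the secondary pulse compared with the same well before compound.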

human ether-à-go-go-related gene (hERG) potassium channel, sequence (Q12809 whole entry, looked up): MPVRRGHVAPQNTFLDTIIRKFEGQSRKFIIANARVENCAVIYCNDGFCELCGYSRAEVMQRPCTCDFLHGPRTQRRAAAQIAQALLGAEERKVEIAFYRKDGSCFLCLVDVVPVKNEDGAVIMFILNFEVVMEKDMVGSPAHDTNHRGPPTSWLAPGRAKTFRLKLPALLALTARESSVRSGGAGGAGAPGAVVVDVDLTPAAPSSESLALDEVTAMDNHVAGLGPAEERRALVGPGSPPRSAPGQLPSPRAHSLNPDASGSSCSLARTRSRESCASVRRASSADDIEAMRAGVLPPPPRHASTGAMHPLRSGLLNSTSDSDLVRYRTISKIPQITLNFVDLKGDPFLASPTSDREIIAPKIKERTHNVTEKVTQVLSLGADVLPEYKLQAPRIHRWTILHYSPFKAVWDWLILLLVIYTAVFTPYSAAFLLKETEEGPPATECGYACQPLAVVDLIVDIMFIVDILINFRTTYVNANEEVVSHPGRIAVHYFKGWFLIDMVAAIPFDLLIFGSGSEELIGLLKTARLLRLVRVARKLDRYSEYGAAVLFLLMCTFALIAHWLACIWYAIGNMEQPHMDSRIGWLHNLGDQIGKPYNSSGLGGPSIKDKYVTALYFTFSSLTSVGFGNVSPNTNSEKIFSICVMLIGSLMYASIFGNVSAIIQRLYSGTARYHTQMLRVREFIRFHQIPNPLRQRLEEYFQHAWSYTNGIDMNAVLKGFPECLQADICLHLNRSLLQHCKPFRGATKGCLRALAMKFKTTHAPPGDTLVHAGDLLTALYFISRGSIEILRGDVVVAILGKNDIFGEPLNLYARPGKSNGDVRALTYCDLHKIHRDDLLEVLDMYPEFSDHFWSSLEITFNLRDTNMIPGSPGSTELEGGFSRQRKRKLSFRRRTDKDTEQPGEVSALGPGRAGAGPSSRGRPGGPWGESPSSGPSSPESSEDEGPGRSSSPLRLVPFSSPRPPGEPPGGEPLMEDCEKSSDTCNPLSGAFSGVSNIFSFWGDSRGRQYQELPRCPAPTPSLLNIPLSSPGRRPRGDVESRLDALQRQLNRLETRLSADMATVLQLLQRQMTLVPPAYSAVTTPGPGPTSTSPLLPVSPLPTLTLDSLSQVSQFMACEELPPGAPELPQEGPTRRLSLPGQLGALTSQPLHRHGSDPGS

Row | SMILES | hERG current change (%, negative = inhibition) at 10uM [%]
1 | COc1ccc(-n2c(SCC(=O)Nc3ccccc3)nnc2-c2ccoc2C)cc1 | -71.8
2 | CCN(CC)C(=O)CSc1nsc(SCC(=O)N(CC)CC)c1C#N | 8.73
3 | Cc1cc(NCc2ccccn2)n2nc(C)c(-c3ccc(Cl)cc3)c2n1 | 14.2
4 | CSc1ccc(S(=O)(=O)N2CCC(C(=O)NCc3ccncc3)CC2)cc1 | -30.5
5 | COc1ccc(C2=NOC(C(=O)N3CCCc4ccccc43)C2)cc1 (stereo not shown) | -15.9
6 | O=C(CCC1CCCN(C(=O)c2ccc3c(c2)OCO3)C1)N1CCN(c2ccccn2)CC1 (stereo not shown) | -9.38
7 | N/C(=N\OC(=O)Cc1ccccc1[N+](=O)[O-])c1cccc(Br)c1 | -2.01
8 | Clc1cccc(Nc2ncnc3c2cnn3-c2ccccc2)c1 | 5.16
9 | Cc1cc(C)n(-c2ccc(NC(=O)C3CCN(Cc4cc(C)c(C)o4)CC3)cc2)n1 | 9.12
10 | COc1ccc(/C(O)=C2/C(=O)C(=O)N(CCN3CCOCC3)C2c2cccnc2)cc1OC (stereo not shown) | 10.8
11 | CCOc1ccc(NS(=O)(=O)c2cc(C(=O)NCC3CCCO3)ccc2Cl)cc1 (stereo not shown) | 13.3
12 | COC(=O)c1c(NC(=O)Cc2cccs2)sc2c1CCC(C)C2 (stereo not shown) | 8.52
13 | O=C1OCCC1Sc1nnc(-c2ccc(Cl)cc2Cl)o1 (stereo not shown) | 0.111
14 | COc1ccccc1N(CC(=O)NC1CCCCC1)C(=O)CNC(=O)c1cccs1 | 0.928
15 | O=C(Nc1ccccc1C(=O)O)c1cc(S(=O)(=O)N2CCCCC2)cs1 | 10.1
16 | Cc1cc(C)n2nc(SCCCC(=O)c3ccccc3)nc2n1 | -4.06
17 | OC1(c2cccc(C(F)(F)F)c2)CCN(Cc2nnnn2Cc2ccccc2)CC1 | 10.4
18 | O=C(Nc1cc2cccc([N+](=O)[O-])c2oc1=O)c1cccs1 | 9.75
19 | O=C(CNC1CCCCCC1)Nc1ccc(S(=O)(=O)NC2CC2)cc1 | 1.98
20 | CCCCCCNC(=O)CC(NS(=O)(=O)c1ccc(NC(C)=O)cc1)C(C)C (stereo not shown) | -6.5
21 | CC1(C)Cc2cccc(OCC(=O)Nc3ccc(S(N)(=O)=O)cc3)c2O1 | -3.01
22 | C/C=C(\C)C(=O)Nc1cccc(C2=NOC3(C2)C[C@H](C(N)=O)N(C(=O)C(c2ccccc2)c2ccccc2)C3)c1 (stereo partly shown) | -3

Row | SMILES | hERG current change (%, negative = inhibition) at 10uM [%]
23 | COc1ccc(C(C(=O)NCC2CCCO2)N(C(=O)c2snc(C(N)=O)c2N)c2ccccc2C)cc1OC (stereo not shown) | -5.76
24 | CSc1nnc(CCNS(=O)(=O)c2ccccc2Br)n1C | 9.05
25 | CC(C)(C)NC(=O)COc1coc(CN2CCN(Cc3ccccc3)CC2)cc1=O | -1.29
26 | COc1cc(C(=O)Nc2cc(C)c(OCC(=O)N3CCOCC3)c(C)c2)cc(OC)c1OC | 11.5
27 | Fc1ccc(NC(=S)N2CCCC2)cc1Cl | 8.95
28 | CCOC(=O)c1c(NC(=S)Nc2ccccc2)sc(C)c1C | 4.49
29 | Cc1nn(Cc2c(F)c(F)c(F)c(F)c2F)c(C)c1NC(=O)c1ccc(COc2cc(Cl)ccc2Cl)cc1 | -1.43
30 | O=S(=O)(Nc1nc2ccccc2nc1Nc1cccc(S(=O)(=O)N2CCCCC2)c1)c1ccccc1 | -2.73
31 | Cc1ccccc1C1C(C#N)=C(N)N(N(C)C)C2=C1C(=O)CC(C)(C)C2 (stereo not shown) | 3.85
32 | COc1ccc(/C=C(\C#N)C(=O)Nc2cccc3ncccc23)cc1OC.Cl | 17.6
33 | CCOC(=O)C1CCN(C(=O)c2cc(S(=O)(=O)N(C)C)ccc2N2CCCC2)CC1 | -18.6
34 | Cc1onc(-c2ccccc2)c1CNS(=O)(=O)c1cccc(Cl)c1 | -7.19
35 | CCCCOC(=O)C1=C(C)Nc2ncnn2C1c1ccc(OC)c(OC)c1OC (stereo not shown) | -18.3
36 | COc1ccc(CCNS(=O)(=O)c2cc3c4c(c2)C(C)C(=O)N4CCC3)cc1OC (stereo not shown) | 11.3
37 | CCN(CC)c1cc(C)c2cc(NC(=O)CNC(C)=O)ccc2n1 | -11.3
38 | C1CC(CN2CCOCC2)CN(c2nc3nonc3nc2N2CCSCC2)C1 (stereo not shown) | -8.62
39 | CC(C)CCNC(=O)C1CCC(=O)N1CCc1ccccc1 (stereo not shown) | 9.14
40 | CCCSc1ncc(Cl)c(C(=O)Nc2ccc(S(=O)(=O)N3CC(C)OC(C)C3)cc2)n1 (stereo not shown) | -7.92
41 | C/C(CC(=O)NC1CCCCC1)=N\NC(=O)c1ccc(Br)cc1 | -2.11
42 | CSc1ccc(/C=N/NC(=O)c2sccc2C)cc1 | 15.4
43 | CCN(CC(=O)Nc1c(F)cccc1F)C(=O)c1ccc(C#N)cc1 | 13
